The target of assay [1] is T1, CD3 naturally expressed on Jurkat cells (human, UniProt P07766). Put plainly: FACS binding on Jurkat cells.
In assay [2] the target is T1, CD3 naturally expressed on Jurkat cells. Put plainly: FACS.
For assay [3] the target is unchanged. Put plainly: FACS. The source holds these as a separate data set.

T1 sequence (P07766 23-207): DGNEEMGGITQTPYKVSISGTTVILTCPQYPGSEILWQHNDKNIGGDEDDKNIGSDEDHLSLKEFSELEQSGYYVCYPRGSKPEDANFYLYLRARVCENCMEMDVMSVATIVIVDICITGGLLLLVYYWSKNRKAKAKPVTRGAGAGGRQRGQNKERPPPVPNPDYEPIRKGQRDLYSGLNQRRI

B1: QP728 (Fc fusion)
chain: DIVMTQSPDSLAVSLGERATINCKSSQSLLNSGNQKNYLAWYQQKPGQPPKLLIYGASTRESGVPDRFTGSGSGTDFTLTISSLQAEDVAVYYCQNDHSYPFTFGQGTKLEIKGGGGSGGGGSGGGGSQVQLVQSGAEVKKPGASVKVSCKASGYTFTSYIMHWVRQAPGQGLEWMGYINPYNDGTKYNEKFKGRVTMTRDTSTSTVYMELSSLRSEDTAVYYCARLGFTTRNAMDYWGQGTLVTVSSGGGGSGGGGSGGGGS[skipping about 120 residues]SGGGSGGGGSGGGGSGGGGSGGGSGGITCPPPMSVEHADIWVKSYSLYSRERYICNSGFKRKAGTCSLTECVLNKATNVAHWTTPSLKCIRGGGGS[skipping human IgG4 Fc with S228P (EU numbers)]
For the molecule B1, the 50% effective concentration (EC50) in assay [1] and in assay [2] was around 1080 nM throughout.

B2: QP3685, hSP34 mutant VH-VL-FC (Fc fusion)
scFv: EVQLLESGGGLVQPGGSLKLSCAASGFTFNTYAMNWVRQAPGKGLEWVARIRSKYNNYETYYADSVKDRFTISRDDSKNTAYLQMNNLKTEDTAVYYCVRHGNFGNSYVSWFAYWGQGTLVTVSSGGGGSGGGGSGGGGSELVVTQEPSLTVSPGGTVTLTCRSSTGAVTTSNYANWVQQKPGQAPRGLIGGTNLRAPGTPARFSGSLLGGKAALTLSGVQPEDEAEYYCALWRSGGWVFGGGTKLTVL[skipping human IgG1 Fc with changes]
In assay [3], B2 gave an EC50 of 0.208 nM.

For the origin of these results see patent publication US20240294640A1 (published 2024).
